Measured values reported in the supplement of paper PMC8728848.
The other results are listed elsewhere or left out.

Experiments:
Assay in all cases: glycan array binding signal (z-score within array); higher = stronger binding
Details in all cases: glycan notation: IUPAC condensed, linker removed
[1] = target: Gal(b1-4)GlcNAc(b1-3)Gal(b1-4)GlcNAc(b1-3)Gal(b1-4)GlcNAc(b1-2)Man(a1-3)[Gal(b1-4)GlcNAc(b1-3)Gal(b1-4)GlcNAc(b1-3)Gal(b1-4)GlcNAc(b1-2)Man(a1-6)]Man(b1-4)GlcNAc(b1-4)GlcNAc
Outline: (§1)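 Columns mapping to the same glycan were averaged after glycan names were converted to IUPAC-condensed notation. The data come from 3228 arrays in the Consortium for Functional Glycomics database, limited to those with an available protein sequence. Binding is reported as a within-array Z-score averaged across arrays of one protein sequence and across linkers.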

[2] = target: Gal(b1-4)GlcNAc(b1-3)Gal(b1-4)GlcNAc(b1-3)Gal(b1-4)GlcNAc(b1-2)Man(a1-3)[Gal(b1-4)GlcNAc(b1-3)Gal(b1-4)GlcNAc(b1-3)Gal(b1-4)GlcNAc(b1-2)Man(a1-6)]Man(b1-4)GlcNAc(b1-4)[Fuc(a1-6)]GlcNAc
Outline: as §1

[3] = target: Gal(b1-4)GlcNAc(b1-3)Gal(b1-4)GlcNAc(b1-3)Gal(b1-4)GlcNAc(b1-2)[Gal(b1-4)GlcNAc(b1-3)Gal(b1-4)GlcNAc(b1-3)Gal(b1-4)GlcNAc(b1-6)]Man(a1-6)[Gal(b1-4)GlcNAc(b1-3)Gal(b1-4)GlcNAc(b1-3)Gal(b1-4)GlcNAc(b1-2)Man(a1-3)]Man(b1-4)GlcNAc(b1-4)[Fuc(a1-6)]GlcNAc
Outline: as §1

[4] = target: Gal(b1-4)GlcNAc(b1-3)Gal(b1-4)GlcNAc(b1-3)Gal(b1-4)GlcNAc(b1-3)Gal(b1-4)GlcNAc(b1-2)Man(a1-3)[Gal(b1-4)GlcNAc(b1-3)Gal(b1-4)GlcNAc(b1-3)Gal(b1-4)GlcNAc(b1-3)Gal(b1-4)GlcNAc(b1-2)Man(a1-6)]Man(b1-4)GlcNAc(b1-4)GlcNAc
Outline: as §1

[5] = target: Gal(b1-4)GlcNAc(b1-3)Gal(b1-4)GlcNAc(b1-3)Gal(b1-4)GlcNAc(b1-3)Gal(b1-4)GlcNAc(b1-2)Man(a1-3)[Gal(b1-4)GlcNAc(b1-3)Gal(b1-4)GlcNAc(b1-3)Gal(b1-4)GlcNAc(b1-3)Gal(b1-4)GlcNAc(b1-2)Man(a1-6)]Man(b1-4)GlcNAc(b1-4)[Fuc(a1-6)]GlcNAc
Outline: as §1

[6] = target: Gal(b1-4)GlcNAc(b1-3)Gal(b1-4)GlcNAc(b1-3)Gal(b1-4)GlcNAc(b1-3)Gal(b1-4)GlcNAc(b1-2)[Gal(b1-4)GlcNAc(b1-3)Gal(b1-4)GlcNAc(b1-3)Gal(b1-4)GlcNAc(b1-3)Gal(b1-4)GlcNAc(b1-6)]Man(a1-6)[Gal(b1-4)GlcNAc(b1-3)Gal(b1-4)GlcNAc(b1-3)Gal(b1-4)GlcNAc(b1-3)Gal(b1-4)GlcNAc(b1-2)Man(a1-3)]Man(b1-4)GlcNAc(b1-4)[Fuc(a1-6)]GlcNAc
Outline: as §1

[7] = target: Gal(b1-4)GlcNAc(b1-3)Gal(b1-4)GlcNAc(b1-3)Gal(b1-4)GlcNAc(b1-3)Gal(b1-4)GlcNAc(b1-3)Gal(b1-4)GlcNAc(b1-2)Man(a1-3)[Gal(b1-4)GlcNAc(b1-3)Gal(b1-4)GlcNAc(b1-3)Gal(b1-4)GlcNAc(b1-3)Gal(b1-4)GlcNAc(b1-3)Gal(b1-4)GlcNAc(b1-2)Man(a1-6)]Man(b1-4)GlcNAc(b1-4)GlcNAc
Outline: as §1

[8] = target: Gal(b1-4)GlcNAc(b1-3)Gal(b1-4)GlcNAc(b1-3)Gal(b1-4)GlcNAc(b1-3)Gal(b1-4)GlcNAc(b1-3)Gal(b1-4)GlcNAc(b1-2)Man(a1-3)[Gal(b1-4)GlcNAc(b1-3)Gal(b1-4)GlcNAc(b1-3)Gal(b1-4)GlcNAc(b1-3)Gal(b1-4)GlcNAc(b1-3)Gal(b1-4)GlcNAc(b1-2)Man(a1-6)]Man(b1-4)GlcNAc(b1-4)[Fuc(a1-6)]GlcNAc
Outline: as §1

[9] = target: Gal(b1-4)GlcNAc(b1-3)Gal(b1-4)GlcNAc(b1-3)Gal(b1-4)GlcNAc(b1-3)Gal(b1-4)GlcNAc(b1-3)Gal(b1-4)GlcNAc(b1-2)[Gal(b1-4)GlcNAc(b1-3)Gal(b1-4)GlcNAc(b1-3)Gal(b1-4)GlcNAc(b1-3)Gal(b1-4)GlcNAc(b1-3)Gal(b1-4)GlcNAc(b1-6)]Man(a1-6)[Gal(b1-4)GlcNAc(b1-3)Gal(b1-4)GlcNAc(b1-3)Gal(b1-4)GlcNAc(b1-3)Gal(b1-4)GlcNAc(b1-3)Gal(b1-4)GlcNAc(b1-2)Man(a1-3)]Man(b1-4)GlcNAc(b1-4)[Fuc(a1-6)]GlcNAc
Outline: as §1

[10] = target: Gal(b1-4)GlcNAc(b1-3)Gal(b1-4)GlcNAc(b1-3)Gal(b1-4)GlcNAc(b1-3)Gal(b1-4)GlcNAc(b1-3)Gal(b1-4)GlcNAc(b1-3)Gal(b1-4)GlcNAc(b1-2)Man(a1-3)[Gal(b1-4)GlcNAc(b1-3)Gal(b1-4)GlcNAc(b1-3)Gal(b1-4)GlcNAc(b1-3)Gal(b1-4)GlcNAc(b1-3)Gal(b1-4)GlcNAc(b1-3)Gal(b1-4)GlcNAc(b1-2)Man(a1-6)]Man(b1-4)GlcNAc(b1-4)GlcNAc
Outline: as §1

[11] = target: Gal(b1-4)GlcNAc(b1-3)Gal(b1-4)GlcNAc(b1-3)GalNAc
Outline: as §1

[12] = target: Gal(b1-4)GlcNAc(b1-3)Gal(b1-4)GlcNAc(b1-3)[Gal(b1-4)GlcNAc(b1-3)Gal(b1-4)GlcNAc(b1-6)]GalNAc
Outline: as §1

[13] = target: Gal(b1-4)GlcNAc(b1-3)Gal(b1-4)GlcNAc(b1-6)[Gal(b1-3)]GalNAc
Outline: as §1

[14] = target: Gal(b1-4)GlcNAc(b1-3)Gal(b1-4)[Fuc(a1-3)]GlcNAc(b1-3)Gal(b1-4)[Fuc(a1-3)]GlcNAc
Outline: as §1

[15] = target: Gal(b1-4)GlcNAc(b1-3)GalNAc
Outline: as §1

[16] = target: Gal(b1-4)GlcNAc(b1-3)[Fuc(a1-3)GlcNAc(b1-6)]Gal(b1-4)Glc
Outline: as §1

[17] = target: Gal(b1-4)GlcNAc(b1-3)[Gal(b1-4)GlcNAc(b1-6)]Gal(b1-4)GlcNAc
Outline: as §1

[18] = target: Gal(b1-4)GlcNAc(b1-3)[GlcNAc(b1-6)]Gal(b1-4)GlcNAc
Outline: as §1

[19] = target: Gal(b1-4)GlcNAc(b1-6)Gal(b1-4)GlcNAc
Outline: as §1

B1: PX9937J-pdi-523-26-523 (Parabacteroides distasonis) (protein)
chain: EPVSSISDANYWKSPDLFKAFNIGLHGLLRSQSSYNIFVLGEPRSDIYGDQPFGGEATQGVERFSYNTINAEFTGISNFANFYTTLNQINLMIRRTNETDLLGEAEKNYYLGQAYGLRAYIYFHLLRSWGDVIITTEPTLGSELDISHLDKAASPASEVMDLIKKDIDASEKAFGGDYSYKQGKCYWSKPATLMLKGEVYLWSGRQMGGGTGDYTVAKTALQDLQQNGNLKLQEKFTDVFSFNNKENSEMIFALHSGKEDDFMMWRDYNWRNNMVPQREYMAGYCDETGTPFLEIPGYNLQGLMRYQVKKDHYLKSFREGDTRLKGTLKAVYKKHEDGTLEYIAPIQYKFQGTTLEGSNERSWYDDYPIYRYADALLLLAEAKALLGEDPSTEINAVRERAYGSEYFNAHKNEVAYPNDKGSFYNDNPFEAGDENVMEAILKERLREFFFEGKRWYDLRRFGKDYVLKYTTAQESRLLWPINEGALTNNPALKQTPGY
[1]
  glycan array binding signal (z-score): 0.115
[2]
  glycan array binding signal (z-score): 0.211
[3]
  glycan array binding signal (z-score): 2.37
[4]
  glycan array binding signal (z-score): 0.62
[5]
  glycan array binding signal (z-score): 0.026
[6]
  glycan array binding signal (z-score): 1.03
[7]
  glycan array binding signal (z-score): 0.269
[8]
  glycan array binding signal (z-score): 0.647
[9]
  glycan array binding signal (z-score): 0.222
[10]
  glycan array binding signal (z-score): 8.6
[11]
  glycan array binding signal (z-score): 6.57
[12]
  glycan array binding signal (z-score): 0.609
[13]
  glycan array binding signal (z-score): 0.289
[14]
  glycan array binding signal (z-score): -0.26
[15]
  glycan array binding signal (z-score): -0.086
[16]
  glycan array binding signal (z-score): -0.041
[17]
  glycan array binding signal (z-score): -0.21
[18]
  glycan array binding signal (z-score): -0.268
[19]
  glycan array binding signal (z-score): -0.198
